# Measured values as given in the supplement of paper PMC6828730.
# Counter-ions that a name gives are not always drawn. The list shows a part of the results. Most values come without repeats; read them as rough.
# Experiments:
# [1] = system: hiPSC-derived cardiomyocytes; assay: time to death of most cells in well after compound addition (days); higher = less cardiotoxic; details: screen: 1; 10 µM
# [2] = system: hiPSC-derived cardiomyocytes; assay: time to death of most cells in well after compound addition (days); higher = less cardiotoxic; extreme values may be limits of the assay; details: 10 µM
SMILES,time to death of most cells in well [1],time to death of most cells in well ([2]; screen: 2),time to death of most cells in well ([2]; screen: 3),time to death of most cells in well ([2]; screen: 4)
Cc1cnc(Nc2ccc(N3CCN(C)CC3)cc2)nc1Nc1cccc(S(=O)(=O)NC(C)(C)C)c1,1.5,3.5,6,3
Cc1nc(Nc2ncc(C(=O)Nc3c(C)cccc3Cl)s2)cc(N2CCN(CCO)CC2)n1 [Dasatinib],> 7,> 7,> 7,> 7
CN(C)C/C=C/C(=O)Nc1cc2c(Nc3ccc(F)c(Cl)c3)ncnc2cc1O[C@H]1CCOC1 [Afatinib (BIBW2992)],3,3.5,3.5,4
COc1cc(OC)c(/C=C/S(=O)(=O)Cc2ccc(OC)c(NCC(=O)O)c2)c(OC)c1,3,3,> 7,> 7
CS(=O)(=O)N1CCc2c(-c3cnc(N)nc3)nc(N3CCOCC3)nc21,5,3.5,> 7,> 7
N#CC(=C(/N)Sc1ccccc1N)/C(C#N)=C(\N)Sc1ccccc1N,> 7,6,> 7,> 7
CNc1nc(-c2ccc3c(N)n[nH]c3c2)cc(N2C[C@@H](C(=O)NC3CCCCC3)CC[C@H]2C)n1,> 7,> 7,> 7,> 7
COc1cc(C(=O)NC2CCN(C)CC2)ccc1Nc1ncc2c(n1)N(C1CCCC1)CC(F)(F)C(=O)N2C,5.5,> 7,> 7,5.5
CNC(=O)c1cc(Oc2ccc(NC(=O)Nc3ccc(Cl)c(C(F)(F)F)c3)cc2)ccn1 [Sorafenib Tosylate],> 7,> 7,> 7,> 7
Cc1cc(F)c(Nc2ncnc3cc(OCc4ccccc4)ccc23)cc1O,2.5,4,> 7,> 7
CC(C)(C)c1cnc(CSc2cnc(NC(=O)C3CCNCC3)s2)o1,2,1,5.5,> 7
O=C1c2ccc(Nc3ccc(F)cc3F)cc2CCc2ccc(OC[C@H](O)CO)cc21 [Skepinone-L],> 7,> 7,> 7,> 7
CCN(CC)CCNC(=O)c1c(C)[nH]c(/C=C2\C(=O)Nc3ccc(F)cc32)c1C [Sunitinib Malate],3,2,4,3
Cc1cc(Nc2nc(N[C@@H](C)c3ccc(F)cc3)c(C#N)cc2F)n[nH]1,> 7,6.5,> 7,> 7
COc1ccc2c(c1)c(C1=C(c3c[nH]c4ccccc34)C(=O)NC1=O)cn2CCCN(C)C,> 7,6.5,> 7,> 7
CCN(CC)CCCCNc1ncc2cc(-c3cc(OC)cc(OC)c3)c(NC(=O)NC(C)(C)C)nc2n1,4,2.5,6,> 7
CS(=O)(=O)c1cccc(CNc2nc(Nc3ccc4c(c3)CCC(=O)N4)ncc2C(F)(F)F)c1,> 7,> 7,> 7,> 7
CNC(=O)c1cc(Oc2ccc3nc(N[C@@H]4CCCC[C@H]4O)sc3c2)ccn1,> 7,> 7,> 7,> 7
Nc1nc(N)c2nc(-c3cccc(O)c3)c(-c3cccc(O)c3)nc2n1,2.5,2,3.5,> 7
CCS(=O)(=O)c1cccc(-c2cc(C(=O)NC3CCN(C)CC3)c(C)c3[nH]c4ncc(C)cc4c23)c1,2,1,2.5,5
O=C1c2ccccc2-c2n[nH]c3cccc1c23,6,> 7,> 7,> 7
O=C1NC(=O)C(c2cnc3ccccn23)=C1c1cn2c3c(cc(F)cc13)CN(C(=O)N1CCCCC1)CC2,0,5.5,> 7,5.5
CC[C@@](C)(Nc1ccnc(-c2c[nH]c3ncccc23)n1)C(=O)NCC(F)(F)F [Decernotinib (VX-509)],6.5,5,> 7,> 7
Cc1c(NC(=O)OC[C@@H]2COCCN2)cn2ncnc(Nc3ccc4c(cnn4Cc4cccc(F)c4)c3)c12,> 7,3,> 7,> 7
COc1ccc(-c2ccc3c(N4CCOC[C@@H]4C)nc(N4CCOC[C@@H]4C)nc3n2)cc1CO,> 7,5.5,> 7,> 7
CC(C)n1nc(-c2cc3cc(O)ccc3[nH]2)c2c(N)ncnc21 [Torkinib (PP242)],> 7,3,> 7,> 7
O=C(/C=C/c1ccc(O)c(O)c1)c1ccc(O)cc1O [Butein],> 7,> 7,> 7,> 7
CNC(=O)c1ccccc1Sc1ccc2c(/C=C/c3ccccn3)n[nH]c2c1 [Axitinib],> 7,> 7,> 7,> 7
